# In patent US11351161B2, “Use of CDK9 inhibitors to reduce cartilage degradation” (THE REGENTS OF THE UNIVERSITY OF CALIFORNIA, priority 2011, dated 2022):
# “And” between values parts separate entries of the source, which are not always exact repeats. Equal values may be shown once. Read-outs that look alike come from different tables or passages of the source.
# Tests used:
# [1] = test system: MMPs and ADAMTS4 (aggrecanase) mRNA; test: IL-1β-induced expression of matrix-degrading enzymes in chondrocytes (real-time PCR); format: cell-based, human; conditions: co-treatment, 10 ng/ml IL-1β, 5 hours
# [2] = test system: NFκB-target primary inflammatory response genes; test: PCR array for NFκB targets in IL-1β-treated primary human chondrocytes; format: cell-based; conditions: for IL-1β-induced expression of IL-6 in the presence of flavopiridol: 492-fold with IL-1β alone
# human cartilage explants [3] = test: GAG release from IL-1β-treated human cartilage explants (DMMB assay); format: cell-based; conditions: 6 nM, 1 ng/ml IL-1β, 6 days
# Experimental: (§1) The amount of glycosaminoglycan (GAG) released into the media was determined by the colorimetric dimethylmethylene blue dye-assay, with chondroitin sulfate as standard (Farndale, et al., Biochim Biophys Acta 883:173-177). The release of Col2a degradation products into the media was determined by measuring the amount of cleaved Col2a peptides (Poole, et al., J Immunol Methods (2004) 294:145-153.) with the […] ELISA kit (IBEX Pharmaceuticals) according to the manufacturer's protocol.
# [4] = test system: rheumatoid arthritis, synovial hyperplasia; conditions: mouse, systemic administration, cited from earlier work
# human cartilage explants [5] = test: Col2a cleavage peptide release from IL-1β-treated human cartilage explants (C2C ELISA); format: cell-based; conditions: 6 nM, 1 ng/ml IL-1β, 6 days
# Experimental: as §1
# iNOS mRNA = iNOS mRNA induction by different inflammatory stimuli (IL-1β, LPS, TNFα) in chondrocytes; conditions: 300 nM, 10 ng/ml of either IL-1β, LPS or TNFα, 5 hours
smiles,measurement,setting,value
"CN1CC[C@H](c2c(O)cc(O)c3c(=O)cc(-c4ccccc4Cl)oc23)[C@H](O)C1 [Flavopiridol, 2-(2-chlorophenyl)-5,7-dihydroxy-8-[(3 S,4R)-3-hydroxy-1-methyl-4-piperidinyl]-4-chromenone]",IL-1β-induced expression of MMPs and ADAMTSs,[1],markedly suppressed
same,IL-1β-induced expression of MMPs and ADAMTSs,[1]; listed as flavopiridol,effectively suppressed
same,repression of IL-1β-dependent inflammatory response gene transcription (IL-6),"[2]; 300 nM, 10 ng/ml IL-1β",99.2%
same,"repression of IL-1β activity on average across 3 donors, 54 inflammatory response genes","[2]; 300 nM, 10 ng/ml IL-1β, 5 hours",> 86%
same,effects of IL-1β on NFκB-target genes,"[2]; 300 nM, 10 ng/ml IL-1β, 5 hours, listed as flavopiridol",almost completely abolishes
same,IL-1β-induced expression of IL-6 in the presence of flavopiridol,"[2]; 300 nM, 10 ng/ml IL-1β",4.2 fold
same,IL-1β-induced expression of IL-6 in the presence of flavopiridol,"[2]; 300 nM, 10 ng/ml IL-1β, listed as flavopiridol",4.1 fold and 4.2 fold
same,"inhibition of activation of NF-κB-dependent primary response genes, in most cases",[2]; IL-1β,> 90%
same,GAG released into the media,human cartilage explants [3],reduced
same,rheumatoid arthritis,[4],prevented rheumatoid arthritis
same,synovial hyperplasia,[4],reduced synovial hyperplasia
same,rheumatoid arthritis,[4]; listed as flavopiridol,effectively prevented rheumatoid arthritis
same,Col2a peptides released into the media,human cartilage explants [5],reduced
same,activation of iNOS expression in all three pathways,iNOS mRNA,greatly suppressed
